Laboratory results published in PMC4336329 (PLoS ONE, 2015).
About 14,000 (4.5%) of roughly 310,000 compounds showed an effect of 50% or more. The effect is printed as a negative number. This is one part of the list.

Biological target: human ether-à-go-go-related gene (hERG) potassium channel (human, UniProt Q12809)
Experiment: primary screen, population patch clamp on CHO cells stably expressing hERG
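Further: peak tail current of the secondary pulse compared with the same well before compound.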

Sequence of human ether-à-go-go-related gene (hERG) potassium channel (Q12809 whole entry, looked up): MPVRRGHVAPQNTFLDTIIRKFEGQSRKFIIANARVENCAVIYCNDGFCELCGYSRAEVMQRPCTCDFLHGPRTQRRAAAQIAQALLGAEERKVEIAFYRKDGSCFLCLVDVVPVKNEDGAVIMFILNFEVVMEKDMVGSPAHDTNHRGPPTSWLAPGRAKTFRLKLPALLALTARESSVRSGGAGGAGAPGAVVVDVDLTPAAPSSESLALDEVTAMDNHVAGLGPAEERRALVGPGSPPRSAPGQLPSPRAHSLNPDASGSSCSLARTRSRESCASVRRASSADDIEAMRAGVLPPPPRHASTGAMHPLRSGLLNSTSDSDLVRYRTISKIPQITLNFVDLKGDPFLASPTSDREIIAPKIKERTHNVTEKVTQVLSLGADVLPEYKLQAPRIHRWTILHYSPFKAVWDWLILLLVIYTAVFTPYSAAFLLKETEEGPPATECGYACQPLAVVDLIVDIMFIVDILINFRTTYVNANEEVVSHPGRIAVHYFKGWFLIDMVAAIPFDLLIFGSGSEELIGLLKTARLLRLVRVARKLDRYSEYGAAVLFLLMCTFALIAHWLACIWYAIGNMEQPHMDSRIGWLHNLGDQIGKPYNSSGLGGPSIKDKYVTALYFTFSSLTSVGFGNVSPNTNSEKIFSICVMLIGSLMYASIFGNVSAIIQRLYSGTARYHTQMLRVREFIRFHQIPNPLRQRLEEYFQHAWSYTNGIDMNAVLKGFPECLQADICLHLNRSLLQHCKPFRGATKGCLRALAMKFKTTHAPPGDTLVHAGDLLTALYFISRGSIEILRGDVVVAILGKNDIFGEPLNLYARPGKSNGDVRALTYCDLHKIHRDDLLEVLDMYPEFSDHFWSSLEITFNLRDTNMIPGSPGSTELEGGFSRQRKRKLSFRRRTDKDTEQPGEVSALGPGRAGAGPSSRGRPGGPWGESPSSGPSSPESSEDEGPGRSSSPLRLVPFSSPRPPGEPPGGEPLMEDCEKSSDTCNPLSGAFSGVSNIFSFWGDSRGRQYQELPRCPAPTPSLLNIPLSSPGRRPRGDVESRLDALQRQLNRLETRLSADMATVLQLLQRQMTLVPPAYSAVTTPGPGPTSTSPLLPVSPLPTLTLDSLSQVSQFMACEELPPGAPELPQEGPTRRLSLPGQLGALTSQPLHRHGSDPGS

Question: How did the “hERG current change (%, negative = inhibition) at 10uM” value turn out when CCCn1c(SCC(=O)NC2CCCC(C)C2C)n[nH]c1=O (stereo not shown) was run?
Answer: The value was 12.7%.

Question: With COc1cc(C)c(NC(=O)C(=S)NCc2ccccc2)cc1C as the compound, how does the “hERG current change (%, negative = inhibition) at 10uM” value read?
Answer: The value was 23.3%.

Question: For O=C(O)c1cccc(-n2cc(-c3cccc(C(F)(F)F)c3)cn2)c1, which “hERG current change (%, negative = inhibition) at 10uM” value is on record?
Answer: Its value is 27%.

Question: How did the “hERG current change (%, negative = inhibition) at 10uM” value turn out when Cc1ccc(-n2cccc2/C=C2\C(=N)N3N=C(c4ccco4)SC3=NC2=O)cc1 was run?
Answer: The value was 1.06%.

Question: COCCNC(=O)c1ccc(C)cc1C was tested. Which “hERG current change (%, negative = inhibition) at 10uM” value did it give?
Answer: Its value is 18.5%.

Question: For CC(Sc1ccc(Cl)cc1)C(=O)N(C)CC(=O)Nc1ccc(N2CCOCC2)cc1 (stereo not shown), which “hERG current change (%, negative = inhibition) at 10uM” value is on record?
Answer: Its value is -49.8%.

Question: Which “hERG current change (%, negative = inhibition) at 10uM” value does the source give for O=C(/C=C\Nc1ccccn1)c1ccccc1 here?
Answer: The value was -1.57%.

Question: Which “hERG current change (%, negative = inhibition) at 10uM” value does the source give for C/C(=N\Nc1nc2ccccc2s1)c1ccc(Br)s1 here?
Answer: Its value is 1.44%.

Question: Which “hERG current change (%, negative = inhibition) at 10uM” value does the source give for O=C(N/N=C/c1ccc2cccc(OCc3ccccc3)c2n1)c1ccc(Br)cc1 here?
Answer: The value was -14%.

Question: CC(=O)CCn1cnc([N+](=O)[O-])n1 was tested. Which “hERG current change (%, negative = inhibition) at 10uM” value did it give?
Answer: The value was 23%.

Question: For COc1cc(/C=C(/C#N)c2ccccc2)ccc1Oc1ccc([N+](=O)[O-])cn1, which “hERG current change (%, negative = inhibition) at 10uM” value is on record?
Answer: The value was 16.4%.

Question: N#CC1(N2CCN(C(=O)c3ccccc3)CC2)CCCCC1 was tested. Which “hERG current change (%, negative = inhibition) at 10uM” value did it give?
Answer: The value was 30.1%.

Question: CCOC(=O)C1CCN(C(=O)NC23CC4CC(CC(C4)C2)C3)CC1 was tested. Which “hERG current change (%, negative = inhibition) at 10uM” value did it give?
Answer: The value was -13.7%.

Question: With Cc1[nH]c2ccccc2c1Cc1nnc(SCCC#N)o1 as the compound, how does the “hERG current change (%, negative = inhibition) at 10uM” value read?
Answer: Its value is 5.74%.

Question: How did the “hERG current change (%, negative = inhibition) at 10uM” value turn out when COCCNC(=O)/C(C#N)=C/C(C)=C/c1ccccc1 was run?
Answer: Its value is 12%.

Question: How did the “hERG current change (%, negative = inhibition) at 10uM” value turn out when O=C(Nc1ccc2c(c1)OCCO2)N1CCN(c2ccc(F)cc2)CC1 was run?
Answer: The value was -5.49%.

Question: With COc1ccccc1CNC(=O)C1CCC(CNS(=O)(=O)c2cccs2)CC1 (stereo not shown) as the compound, how does the “hERG current change (%, negative = inhibition) at 10uM” value read?
Answer: The value was -27%.

Question: Which “hERG current change (%, negative = inhibition) at 10uM” value does the source give for Cc1ncc([N+](=O)[O-])n1CCOC(N)=O here?
Answer: The value was 15.1%.

Question: CCCCCN(C(=O)CCC(=O)OCC(=O)N1CCCCC1C)c1c(N)n(CCCC)c(=O)[nH]c1=O (stereo not shown) was tested. Which “hERG current change (%, negative = inhibition) at 10uM” value did it give?
Answer: The value was 3.75%.

Question: How did the “hERG current change (%, negative = inhibition) at 10uM” value turn out when O=C(Cc1ccccc1F)NCC(c1ccco1)N1CCCCC1 (stereo not shown) was run?
Answer: The value was 17.7%.

Question: With COc1ccc(OC)c(CN2CCCCCC2)c1.O=C(O)C(=O)O as the compound, how does the “hERG current change (%, negative = inhibition) at 10uM” value read?
Answer: The value was 15.7%.

Question: For Cc1ccn2c(Nc3ccc4c(c3)OCO4)c(-c3ccc(O)cc3)nc2c1, which “hERG current change (%, negative = inhibition) at 10uM” value is on record?
Answer: Its value is -49%.

Question: Which “hERG current change (%, negative = inhibition) at 10uM” value does the source give for O=C(NCc1ccco1)c1ccc(S(=O)(=O)N2CCCCC2)cc1 here?
Answer: Its value is 14.2%.

Question: How did the “hERG current change (%, negative = inhibition) at 10uM” value turn out when CC(=O)Nc1ccc(Sc2ncccc2C(=O)Nc2ccc(OC(F)(F)F)cc2)cn1 was run?
Answer: The value was -7.23%.

Question: For O=C(NCc1ccc(Cl)cc1)c1ccc(OCC2CCCO2)cc1 (stereo not shown), which “hERG current change (%, negative = inhibition) at 10uM” value is on record?
Answer: The value was 8.62%.

Question: CCOC(=O)Cc1c[nH]c(=S)[nH]c1=O was tested. Which “hERG current change (%, negative = inhibition) at 10uM” value did it give?
Answer: The value was 21.2%.

Question: CN(Cc1ccon1)Cc1cn(Cc2ccccc2)nc1-c1ccc2c(c1)OCO2 was tested. Which “hERG current change (%, negative = inhibition) at 10uM” value did it give?
Answer: Its value is -19.3%.

Question: With COc1ccc(C(CC(=O)N2CCCC2)c2c(OC)cc(OC)c3c(-c4ccccc4)cc(=O)oc23)cc1 (stereo not shown) as the compound, how does the “hERG current change (%, negative = inhibition) at 10uM” value read?
Answer: The value was -5.46%.

Question: How did the “hERG current change (%, negative = inhibition) at 10uM” value turn out when CCc1ccccc1NC(=O)Nn1cnnc1 was run?
Answer: Its value is 18%.

Question: For Cc1cc(-n2c(C)cc(C(=O)CSc3nc(N)cc(=O)[nH]3)c2C)no1, which “hERG current change (%, negative = inhibition) at 10uM” value is on record?
Answer: Its value is -0.0997%.

Question: With COc1cccc(CN2C(=NC(=O)C3CC3)SC3CS(=O)(=O)CC32)c1 (stereo not shown) as the compound, how does the “hERG current change (%, negative = inhibition) at 10uM” value read?
Answer: Its value is 15.5%.

Question: For C/C(=N\NC(=O)C1CC1)c1ccc(OC(F)F)cc1, which “hERG current change (%, negative = inhibition) at 10uM” value is on record?
Answer: Its value is 9.94%.

Question: For Cc1nn(-c2ccccc2)c2c1/C(=N/O)CC(C)(C)C2, which “hERG current change (%, negative = inhibition) at 10uM” value is on record?
Answer: Its value is -18.1%.

Question: With Cc1ccc(-c2nn(-c3cccc(F)c3)cc2CNCCc2ccncc2)o1 as the compound, how does the “hERG current change (%, negative = inhibition) at 10uM” value read?
Answer: Its value is -53.6%.

Question: For CC(=O)Nc1ccc2c(CN3C(=O)NC(C)(c4ccc(C)cc4)C3=O)cc(=O)oc2c1 (stereo not shown), which “hERG current change (%, negative = inhibition) at 10uM” value is on record?
Answer: Its value is 14.3%.

Question: N#CCOc1ccccc1/C=C/c1nc2ccccc2c(=O)[nH]1 was tested. Which “hERG current change (%, negative = inhibition) at 10uM” value did it give?
Answer: Its value is 11.3%.

Question: With O=C(Nc1ccc2c(c1)OCO2)c1cnn2c1NC(c1ccco1)CC2C(F)(F)F (stereo not shown) as the compound, how does the “hERG current change (%, negative = inhibition) at 10uM” value read?
Answer: Its value is -4.57%.

Question: With CC(=O)Cc1nsc(NC(=O)c2ccc(-c3ccc(Cl)cc3Cl)o2)n1 as the compound, how does the “hERG current change (%, negative = inhibition) at 10uM” value read?
Answer: The value was 32.9%.

Question: Cc1cc(CN(C)C)c(OC(=O)N(C)C)cc1C.Cl was tested. Which “hERG current change (%, negative = inhibition) at 10uM” value did it give?
Answer: Its value is 16.1%.

Question: Which “hERG current change (%, negative = inhibition) at 10uM” value does the source give for CCOC(=O)Cn1c2ccc(OC)cc2c2nc3ccccc3nc21 here?
Answer: Its value is -5.21%.

Question: COC(=O)c1cccc(NCN2C(=O)c3ccccc3C2=O)c1 was tested. Which “hERG current change (%, negative = inhibition) at 10uM” value did it give?
Answer: The value was 1.11%.

Question: How did the “hERG current change (%, negative = inhibition) at 10uM” value turn out when CC(=O)N1CCN(S(=O)(=O)c2cccc(C(=O)NNC(=O)Cn3nc(C)cc3C)c2)CC1 was run?
Answer: The value was 10.1%.

Question: How did the “hERG current change (%, negative = inhibition) at 10uM” value turn out when Cc1cccc(Nc2nc3ccccc3n3nnnc23)c1 was run?
Answer: Its value is 18.6%.

Question: Which “hERG current change (%, negative = inhibition) at 10uM” value does the source give for COc1cccc(/C=C(\C#N)c2nc3ccc(C)cc3[nH]2)c1OCC(=O)O here?
Answer: Its value is 12.4%.

Question: For CCN(CC(=O)NCc1ccc(Cl)cc1)C(=O)c1cc(OC)cc(OC)c1, which “hERG current change (%, negative = inhibition) at 10uM” value is on record?
Answer: Its value is -48.4%.

Question: Cl.Clc1ccccc1CN(Cc1ccco1)Cc1nnnn1C1CCCC1 was tested. Which “hERG current change (%, negative = inhibition) at 10uM” value did it give?
Answer: The value was 10.1%.

Question: For CC(=O)Nc1ccc(OCC(O)Cn2ccnc2C)cc1 (stereo not shown), which “hERG current change (%, negative = inhibition) at 10uM” value is on record?
Answer: The value was 14.4%.

Question: For CC(C)(C)Nc1nc(Cl)nc(NCc2ccccc2)n1, which “hERG current change (%, negative = inhibition) at 10uM” value is on record?
Answer: The value was -5.31%.

Question: How did the “hERG current change (%, negative = inhibition) at 10uM” value turn out when CN(CCC1CCOCC1)C(=O)CC1C(=O)NCCN1Cc1c(F)cccc1Cl (stereo not shown) was run?
Answer: Its value is 9.8%.

Question: CC1(C(=O)O)Cc2ccccc2C(=O)O1 (stereo not shown) was tested. Which “hERG current change (%, negative = inhibition) at 10uM” value did it give?
Answer: The value was 8.09%.

Question: Which “hERG current change (%, negative = inhibition) at 10uM” value does the source give for O=C1CSC(c2cccnc2)N1c1ccc(Cl)cc1 (stereo not shown) here?
Answer: Its value is 1.64%.

Question: For O=C(c1sc2ccccc2c1Cl)N1CCN(c2ccc(F)cc2)CC1, which “hERG current change (%, negative = inhibition) at 10uM” value is on record?
Answer: Its value is -3.54%.

Question: COC(=O)/C=c1/s/c(=C(/C#N)C(=O)N2CCCCC2)n(-c2ccccc2)c1=O was tested. Which “hERG current change (%, negative = inhibition) at 10uM” value did it give?
Answer: Its value is -3.94%.

Question: O=C(COc1ccc(S(=O)(=O)N2CCOCC2)cc1)Nc1cccc([N+](=O)[O-])c1 was tested. Which “hERG current change (%, negative = inhibition) at 10uM” value did it give?
Answer: Its value is -39%.

Question: For COC(=O)c1ccc(OC(=O)c2ccccn2)cc1, which “hERG current change (%, negative = inhibition) at 10uM” value is on record?
Answer: The value was 4.85%.

Question: With COc1ccc(C(=O)NC(=S)Nc2ccccc2[N+](=O)[O-])cc1OC as the compound, how does the “hERG current change (%, negative = inhibition) at 10uM” value read?
Answer: The value was 19.5%.

Question: Which “hERG current change (%, negative = inhibition) at 10uM” value does the source give for COc1ccc(/C=C/C(=O)OCC(=O)Nc2ccc(N3CCOCC3)cc2)cc1 here?
Answer: The value was 59.2%.

Question: With O=C(CSc1ccc(-c2ccccn2)nn1)c1ccccc1 as the compound, how does the “hERG current change (%, negative = inhibition) at 10uM” value read?
Answer: The value was 1.55%.
